The other results are listed elsewhere or left out. The source does not settle which construct or isoform was used.
The sequences below were run against GST-SBP-ILF3 (Homo sapiens) (UniProt Q12906) (assay: targeted RNA Bind-n-Seq). Conditions: RBNS binding buffer: 25 mM Tris pH 7.5, 150 mM KCl, 3 mM MgCl2, 0.1% Tween, 0.5 mg/mL BSA, 1 mM DTT; 27 nM protein, 750 pM RNA pool; temperature not stated; high values mean tight binding; sequences stand for … in GGGUAAAAGCGAGGUGAA…CGGGACAAGUAUUAUGGG.
Sequence “GGUUGGUGUGUUGGACUCUAACACAUCAAC [gtspaired]” has a binding signal (log2 fold change) of -0.135.
Work on “UUUUUUUUUUGAGACCGCUGCGGUCUCCUG [tttttgagapaired]” yielded a binding signal (log2 fold change) of 1.01.
Work on “UUUUUUUUUUGAGAGCGGGGCGCUCUCCAG [tttttgagapaired]” yielded a binding signal (log2 fold change) of 0.359.
“UUUUUUUUUUGAGACGGGAACCGUUUCCAG [tttttgagapaired]” gave a binding signal (log2 fold change) of 0.431.
In the case of “UUUUUUUUUUGAGAUGGUAUCCAUCUUCUG [tttttgagapaired]”, the binding signal (log2 fold change) was 0.203.
“UUCUCUCUUCCUCCAAGGGAGGAGGAGGGA [ctspaired]” was tested, and the binding signal (log2 fold change) was -0.188.
In the case of “UUUUUUUUUUGAGACGGAAUCUGUCUUCUG [tttttgagapaired]”, the binding signal (log2 fold change) was 0.355.
For “GUGUGUGGUGUUGGUCUCUAACACCAUACA [gtspaired]”, the binding signal (log2 fold change) was -0.413.
In the case of “GGUUGUGGUGUUGGAUCCUAACACCGCGAC [gtspaired]”, the binding signal (log2 fold change) was -0.616.
Work on “UUUUUUUUUUGAGAUCGGAUCGAUCUCCUA [tttttgagapaired]” yielded a binding signal (log2 fold change) of -0.025.
Sequence “UUUUUUUUUUGAGAUGGUGACUAUCUUCUA [tttttgagapaired]” has a binding signal (log2 fold change) of 0.0416.
For “UUUUUUUUUUGAGACCGAAACGGUCUCCAG [tttttgagapaired]”, the binding signal (log2 fold change) was 0.455.
With “UUUUUUUUUUGAGACUGUAUCAGUCUCCUA [tttttgagapaired]” the binding signal (log2 fold change) was -0.146.
In the case of “UUUUUUUUUUGAGAUCGUAUCGAUCUCCUG [tttttgagapaired]”, the binding signal (log2 fold change) was 0.0385.
For “UUUUUUUUUUGAGACCGUGACGGUCUCCAG [tttttgagapaired]”, the binding signal (log2 fold change) was 0.373.
“UUUUUUUUUUGAGAGCGUAUCGCUCUCCAG [tttttgagapaired]” was tested, and the binding signal (log2 fold change) was 0.105.
Sequence “GUGUGUGGUGUUGGAACCUAACACCGCGCA [gtspaired]” has a binding signal (log2 fold change) of -0.821.
In the case of “UUUUUUUUUUGAGAGUGAGACACUCUCCAG [tttttgagapaired]”, the binding signal (log2 fold change) was 0.0923.
“UUUUUUUUUUGAGACUGAGGCAGUCUUCUA [tttttgagapaired]” gave a binding signal (log2 fold change) of 0.523.
“UUUUUUUUUUGAGACCGAUCCGGUCUCCUG [tttttgagapaired]” showed a binding signal (log2 fold change) of 0.678.
With “UUUUUUUUUUGAGAUGGUGUCUAUCUCCUA [tttttgagapaired]” the binding signal (log2 fold change) was 0.591.
With “UUUUUUUUUUGAGAAGGUGUCCUUCUCCUA [tttttgagapaired]” the binding signal (log2 fold change) was 0.196.
Sequence “GUGGUGUGUGUUGGCUCCUAACACAUACUA [gtspaired]” has a binding signal (log2 fold change) of -0.517.
“GUGUGGUGUGUUGGCCUCUAACACACUAUA [gtspaired]” was tested, and the binding signal (log2 fold change) was -1.02.
“GUGUGUGGUGUUGGCCUCUAACACCAUACG [gtspaired]” was tested, and the binding signal (log2 fold change) was -0.658.
With “GUUGUGUGUGUUGGAUUCUAACACACGCAG [gtspaired]” the binding signal (log2 fold change) was -0.855.
“UUUUUUUUUUGAGAACGAUUCGUUCUCCUA [tttttgagapaired]” showed a binding signal (log2 fold change) of -0.217.
“UUUUUUUUUUGAGAUGGGUACCAUCUUCUA [tttttgagapaired]” gave a binding signal (log2 fold change) of 0.548.
Sequence “GUGUGGUGUGUUGGUCUCUAACACACCGCG [gtspaired]” has a binding signal (log2 fold change) of -0.83.
For “UUUUUUUUUUGAGACGGGUACCGUCUCCUA [tttttgagapaired]”, the binding signal (log2 fold change) was -0.146.
With “GUUGGUGGUGUUGGAGCCUAACACCGCCGA [gtspaired]” the binding signal (log2 fold change) was -0.249.
In the case of “UUUUUUUUUUGAGAUGGGUACCAUUUCCAG [tttttgagapaired]”, the binding signal (log2 fold change) was 0.323.
“UUUUUUUUUUGAGACCGCGACGGUCUUCUG [tttttgagapaired]” gave a binding signal (log2 fold change) of 0.549.
“GGUGUGUGUGUUGGACUCUAACACAUACAC [gtspaired]” gave a binding signal (log2 fold change) of -0.237.
Sequence “GUGGUUGGUGUUGGUGCCUAACACCGACUA [gtspaired]” has a binding signal (log2 fold change) of -0.312.
In the case of “UUCUUCUCUCCUCCGCUGGAGGGGGGAAGA [ctspaired]”, the binding signal (log2 fold change) was -0.973.
For “UUUUUUUUUUGAGACUGGGACAGUCUCCAG [tttttgagapaired]”, the binding signal (log2 fold change) was 0.54.
“UUUUUUUUUUGAGACGGCGACCGUCUUCUG [tttttgagapaired]” was tested, and the binding signal (log2 fold change) was 0.791.
With “GUGGUGUGUGUUGGUGUCUAACACACAUCA [gtspaired]” the binding signal (log2 fold change) was -0.108.
“GGUGUUGGUGUUGGUUCCUAACACCGAUAC [gtspaired]” was tested, and the binding signal (log2 fold change) was -0.305.
In the case of “GUGUGGUGUGUUGGCCUCUAACACACCACG [gtspaired]”, the binding signal (log2 fold change) was -0.272.
With “UUUUUUUUUUGAGAAGGAAUCCUUCUCCAG [tttttgagapaired]” the binding signal (log2 fold change) was -0.262.
Sequence “UUUUUUUUUUGAGACGGUAGCCGUCUCCUA [tttttgagapaired]” has a binding signal (log2 fold change) of 0.45.
Sequence “UUUUUUUUUUGAGAUGGCGACCAUCUCCGG [tttttgagapaired]” has a binding signal (log2 fold change) of 0.383.
For “UUUUUUUUUUGAGAUCGGCACGAUCUCCUA [tttttgagapaired]”, the binding signal (log2 fold change) was 0.154.
Sequence “GUGUGUGGUGUUGGAUUCUAACACCGCAUA [gtspaired]” has a binding signal (log2 fold change) of -0.372.
“GUUGGUGGUGUUGGCACCUAACACCGCCAG [gtspaired]” gave a binding signal (log2 fold change) of -0.94.
“UUUUUUUUUUGAGACCGCGACGGUCUCCAG [tttttgagapaired]” gave a binding signal (log2 fold change) of 0.374.
“UUCUUCUCUCCUCCGGGGGAGGGGGGAAGA [ctspaired]” was tested, and the binding signal (log2 fold change) was -0.476.
For “UUUUUUUUUUGAGACUGCUUCAGUCUCCGG [tttttgagapaired]”, the binding signal (log2 fold change) was 0.183.
With “UUUUUUUUUUGAGAUCGACGCGAUCUUCUG [tttttgagapaired]” the binding signal (log2 fold change) was 0.593.
In the case of “GUUGGUGGUGUUGGAUCCUAACACCGCCAG [gtspaired]”, the binding signal (log2 fold change) was -0.431.
“UUUUUUUUUUGAGACGGACACUGUCUCCUA [tttttgagapaired]” gave a binding signal (log2 fold change) of 0.806.
With “UUUUUUUUUUGAGAGGGAUCCCCUUUCCGG [tttttgagapaired]” the binding signal (log2 fold change) was 0.0875.
In the case of “UUUUUUUUUUGAGAUCGAAGCGAUCUUCUG [tttttgagapaired]”, the binding signal (log2 fold change) was 0.307.
Work on “UUUUUUUUUUGAGAGUGAUACACUCUUCUA [tttttgagapaired]” yielded a binding signal (log2 fold change) of -0.202.
For “UUUUUUUUUUGAGAGUGAACCACUCUCCAG [tttttgagapaired]”, the binding signal (log2 fold change) was -0.0443.
For “UUUUUUUUUUGAGAGGGCUACCCUCUCCUG [tttttgagapaired]”, the binding signal (log2 fold change) was 0.689.
With “GUUGGUGGUGUUGGUCUCUAACACCAUCAA [gtspaired]” the binding signal (log2 fold change) was -0.28.
In the case of “UUUUUUUUUUGAGACUGGGUCAGUCUCCGG [tttttgagapaired]”, the binding signal (log2 fold change) was 0.382.
“UUUUUUUUUUGAGAGGGUGGCCCUCUCCUG [tttttgagapaired]” showed a binding signal (log2 fold change) of 0.92.
“GUUGGUGGUGUUGGAGUCUAACACCGCCGA [gtspaired]” showed a binding signal (log2 fold change) of -0.317.
In the case of “GUGUGUGGUGUUGGCACCUAACACCACGCG [gtspaired]”, the binding signal (log2 fold change) was -0.596.
With “UUUUUUUUUUGAGACGGACUCCGUCUCCGG [tttttgagapaired]” the binding signal (log2 fold change) was 0.338.
“GUGGUGUGUGUUGGUGCCUAACACAUACUA [gtspaired]” gave a binding signal (log2 fold change) of -0.571.
For “UUUUUUUUUUGAGACGGUUUCCGUUUCCAG [tttttgagapaired]”, the binding signal (log2 fold change) was 0.692.
